According to PubChem BioAssay (NCATS):
Inconclusive means that the source gave no clear call. Such entries were picked first, then a sample of the others. Potencies of inconclusive entries are left out as doubtful fits. Activity calls are given as the source filed them. Calls come from the whole dose curve; as a rule, active = well fitted curve in the direction sought with a large enough effect; inconclusive = small, poorly fitted or top-dose-only effect, or another doubt; inactive = no such curve, though single readings can be large; an effect the other way counts as inactive or inconclusive.

How the values were obtained:
[1] = target: Rap guanine nucleotide exchange factor 3 (Homo sapiens) (UniProt O95398); experiment: Confirmatory qHTS for antagonist of cAMP-regulated guanine nucleotide exchange factor 3 (EPAC1) (AID 1645880); settings: EPAC1 Rap1B-BODIPY-GDP exchange, fluorescence; activity, negative = inhibition: at 115 µM (top of the series); note: nearly all actives have a fitted effect of over 55% in size;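 for activity, negative = inhibition: plate controls were DMSO only for no effect and full effect of the ATA control for full effect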
Sequence of UniProt O95398 (O95398 whole entry, looked up): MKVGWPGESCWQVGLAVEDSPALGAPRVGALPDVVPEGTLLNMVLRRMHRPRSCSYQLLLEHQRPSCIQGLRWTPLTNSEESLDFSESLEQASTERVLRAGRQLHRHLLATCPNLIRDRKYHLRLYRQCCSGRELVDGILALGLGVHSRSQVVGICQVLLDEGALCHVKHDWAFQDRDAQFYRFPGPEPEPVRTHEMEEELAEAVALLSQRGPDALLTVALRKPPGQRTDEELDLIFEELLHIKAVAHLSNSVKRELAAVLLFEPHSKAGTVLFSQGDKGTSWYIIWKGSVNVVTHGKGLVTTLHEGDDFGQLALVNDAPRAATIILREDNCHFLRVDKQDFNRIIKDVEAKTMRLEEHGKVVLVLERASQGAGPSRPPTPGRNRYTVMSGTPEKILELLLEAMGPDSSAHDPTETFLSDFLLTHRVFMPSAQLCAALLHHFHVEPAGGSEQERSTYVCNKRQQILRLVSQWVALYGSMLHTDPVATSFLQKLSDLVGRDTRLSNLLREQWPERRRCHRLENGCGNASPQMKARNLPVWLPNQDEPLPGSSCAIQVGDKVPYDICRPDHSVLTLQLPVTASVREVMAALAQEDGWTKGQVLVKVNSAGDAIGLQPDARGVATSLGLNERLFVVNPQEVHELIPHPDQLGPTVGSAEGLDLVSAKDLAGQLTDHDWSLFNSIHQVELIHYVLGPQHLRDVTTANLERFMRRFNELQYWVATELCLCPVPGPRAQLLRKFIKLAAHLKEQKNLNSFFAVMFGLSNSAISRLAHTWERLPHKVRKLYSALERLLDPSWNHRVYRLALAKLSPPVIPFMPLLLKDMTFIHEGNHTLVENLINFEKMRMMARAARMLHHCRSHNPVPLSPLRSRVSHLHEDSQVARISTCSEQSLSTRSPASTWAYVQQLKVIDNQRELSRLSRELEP
Outline: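 Nucleotide exchange uses 100 nM EPAC1, 250 nM RAP1B-BODIPY-GDP and 50 uM GDP, with compounds in a concentration-titration series. After 5 min at room temperature, fluorescence (480 nm ex/540 nm em) is read every 5 min for 30 min. Data are normalized to control ATA and DMSO.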

[2] = target: Rap guanine nucleotide exchange factor 3 (Homo sapiens) (UniProt O95398); experiment: Counterscreen qHTS for agonist of cAMP-regulated guanine nucleotide exchange factor 3 (EPAC1) (AID 1645889); settings: EPAC1 Rap1B-BODIPY-GDP exchange, fluorescence; activation: at 154 µM (top of the series) unless noted; note: nearly all actives have a fitted effect of over 40% in size; for activation: % of control where 0% means no effect
Outline: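 Rap1B–BODIPY-GDP (250 nM) with 50 uM GDP; compounds pin-transferred to 9.74 nM–152 uM final (activator) or from 7.32 nM upwards (inhibitor). Fluorescence Ex/Em 480/540 nm read at 5 and 30 min, then after adding cAMP or buffer, at room temperature.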
Potency is the fitted concentration of half-maximal effect; tags give direction and shape of the fitted curve.

| SMILES | Potency [1] | activation [2] | Potency [2] | activity, negative = inhibition [1] |
| --- | --- | --- | --- | --- |
| CCOc1ccc(C(=O)Nc2ccc3c(c2)N(C(C)=O)CCC3)cc1OCC | inactive | inconclusive: 42.1% [activator] |  |  |
| N#Cc1c(/N=C/c2ccco2)sc2c1CCC2 | inactive | inactive: 7.28% [at 30.8 µM] |  |  |
| O=C(N/N=C/c1c(O)ccc2ccccc12)c1[nH]ncc1Br | inconclusive [inhibitor, full curve] |  | inconclusive [activator, single point] |  |
| c1ccc(-c2nnc3sc(CN4CCC5(CC4)OCCO5)cn23)cc1 | inactive |  | inactive |  |
| COc1ccc(C(=O)c2ccccc2)c2c(O)ccc(C(=O)c3ccccc3)c12 | inactive |  | inactive |  |
| CCOC(=O)C1=CN(Cc2cccc(F)c2)S(=O)(=O)NC1c1ccc(Br)cc1F (configuration not stated) |  |  | inconclusive [activator, partial curve] | inconclusive: -31.8% [inhibitor] |
